The campaign covered roughly 310,000 compounds. About 2,200 (0.71%) showed an effect of 50% or more. Effects have a minus sign here. This is one part of the list.

In the assay the target is human ether-à-go-go-related gene (hERG) potassium channel (human, UniProt Q12809). Put plainly: primary screen, population patch clamp on CHO cells stably expressing hERG.
Sequence of human ether-à-go-go-related gene (hERG) potassium channel (Q12809 whole entry, looked up): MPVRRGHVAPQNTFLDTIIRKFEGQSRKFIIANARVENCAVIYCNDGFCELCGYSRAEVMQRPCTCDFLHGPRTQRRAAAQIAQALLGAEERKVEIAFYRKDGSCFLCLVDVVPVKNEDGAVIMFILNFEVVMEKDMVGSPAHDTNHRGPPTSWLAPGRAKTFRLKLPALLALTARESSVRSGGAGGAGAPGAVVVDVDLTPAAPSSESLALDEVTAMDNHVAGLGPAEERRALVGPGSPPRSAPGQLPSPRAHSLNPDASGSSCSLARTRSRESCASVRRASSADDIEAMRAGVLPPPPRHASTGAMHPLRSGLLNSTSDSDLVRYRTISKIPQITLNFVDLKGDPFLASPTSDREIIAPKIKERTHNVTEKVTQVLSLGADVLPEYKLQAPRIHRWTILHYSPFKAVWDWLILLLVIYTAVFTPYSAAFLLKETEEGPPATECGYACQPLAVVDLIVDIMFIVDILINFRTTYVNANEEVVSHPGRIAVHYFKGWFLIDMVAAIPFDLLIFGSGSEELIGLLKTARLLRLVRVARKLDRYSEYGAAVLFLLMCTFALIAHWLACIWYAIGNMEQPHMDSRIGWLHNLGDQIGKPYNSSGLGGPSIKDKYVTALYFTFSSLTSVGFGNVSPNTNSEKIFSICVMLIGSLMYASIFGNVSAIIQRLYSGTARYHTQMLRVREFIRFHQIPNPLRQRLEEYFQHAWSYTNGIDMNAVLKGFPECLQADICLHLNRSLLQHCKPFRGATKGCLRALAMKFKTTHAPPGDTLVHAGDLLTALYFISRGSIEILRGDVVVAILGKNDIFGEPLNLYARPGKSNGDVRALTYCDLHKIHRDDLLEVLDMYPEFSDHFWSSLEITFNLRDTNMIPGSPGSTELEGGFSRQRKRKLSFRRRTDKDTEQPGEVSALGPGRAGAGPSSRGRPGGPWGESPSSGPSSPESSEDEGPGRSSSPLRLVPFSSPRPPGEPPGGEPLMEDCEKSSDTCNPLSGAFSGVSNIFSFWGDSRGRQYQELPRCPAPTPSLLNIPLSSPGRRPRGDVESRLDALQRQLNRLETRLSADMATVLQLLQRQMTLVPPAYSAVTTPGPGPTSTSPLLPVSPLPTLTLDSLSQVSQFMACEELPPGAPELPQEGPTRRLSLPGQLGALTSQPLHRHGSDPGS
As to `Cc1ccc2cc3cc(C(=O)N4CCCCCC4)oc3nc2c1`, the “hERG current change (%, negative = inhibition) at 1uM” value is on record as 10.4%.

Regarding `CCCC(=O)N1CCN(c2ccc(NC(=O)c3cc4ccccc4o3)cc2)CC1`, the “hERG current change (%, negative = inhibition) at 1uM” value worked out at 1.14%.

For the molecule `CSc1ccc(CN(C)C(=O)CCNS(=O)(=O)c2ccc(C)c(C)c2)cc1`, the “hERG current change (%, negative = inhibition) at 1uM” value came out at 3.74%.

As for `O=C(O)c1ccc(NS(=O)(=O)c2ccc3c(c2)OCCCO3)cc1`, the “hERG current change (%, negative = inhibition) at 1uM” value worked out at 3.86%.

In the case of `Cc1nn(CC(=O)NCCCN2CCCC2)c(=O)c2nn(-c3ccccc3)c(C)c12`, the “hERG current change (%, negative = inhibition) at 1uM” value was 17.1%.

For the molecule `C[C@@H]1C[C@H]2OC(=O)C3(CO3)[C@H]2[C@H](O)[C@]2(C)C(=O)C3OC3[C@@H]12` (some centres unmarked), the “hERG current change (%, negative = inhibition) at 1uM” value is recorded as 17%.

Regarding `Cc1ccc(C(=O)CC(=O)c2ccccc2C)c(O)c1`, the “hERG current change (%, negative = inhibition) at 1uM” value came to 4.65%.

Take `O=C(NC1CCN(Cc2ccccc2)C1)c1cc(S(=O)(=O)N2CCOCC2)ccc1Cl` (centres unmarked): the “hERG current change (%, negative = inhibition) at 1uM” value is listed as -11.9%.

In the case of `O=C(Nc1cccc(Cl)c1Cl)c1ccncc1`, the “hERG current change (%, negative = inhibition) at 1uM” value is given as 14.2%.

With `N#CC(C#N)=C1c2cc(S(=O)(=O)NCCO)ccc2-c2ccc(S(=O)(=O)NCCO)cc21`, the “hERG current change (%, negative = inhibition) at 1uM” value came to 5.38%.

For the molecule `CC(=O)c1cc(-c2ccccc2)n(CCC(=O)NC2CCCC2)c1C`, the “hERG current change (%, negative = inhibition) at 1uM” value stood at 12.7%.

For the molecule `Cn1c(SCC(=O)O)nc2ccccc2c1=O`, the “hERG current change (%, negative = inhibition) at 1uM” value was found to be 9.72%.

As to `C[C@H](NC(=O)[C@H](Cc1ccccc1)NC(=O)c1cc2cc(Cl)ccc2n1C)C(=O)O`, the “hERG current change (%, negative = inhibition) at 1uM” value amounted to 17.4%.

With `COc1ccc(N(CC(=O)N2CCc3ccccc3C2)S(C)(=O)=O)cc1`, the “hERG current change (%, negative = inhibition) at 1uM” value is -9.71%.

In the case of `Cc1ccc(S(=O)(=O)/N=C(/c2ccccc2)N(C)c2ccc(O)cc2)cc1`, the “hERG current change (%, negative = inhibition) at 1uM” value is recorded as 2%.

For `Cc1nc(SCc2c(F)cccc2Cl)c2c(=O)n(C)c(=O)n(C)c2n1`, the “hERG current change (%, negative = inhibition) at 1uM” value worked out at 13.2%.

For the molecule `Cc1ccccc1N(C(=O)c1csnn1)C(C(=O)NC(C)(C)C)c1ccncc1` (centres unmarked), the “hERG current change (%, negative = inhibition) at 1uM” value worked out at 10.8%.

Turning to `O=C(Nc1cc(Cl)c(Cl)cc1Cl)c1cccnc1`, the “hERG current change (%, negative = inhibition) at 1uM” value is 15.8%.

For the molecule `CC(=O)NC(c1ccco1)c1cc(F)c2cccnc2c1O` (centres unmarked), the “hERG current change (%, negative = inhibition) at 1uM” value was 0.492%.

As for `Cl.Fc1ccc(CNCc2ccc3c(c2)OCO3)cc1`, the “hERG current change (%, negative = inhibition) at 1uM” value stood at 15%.

With `O=C(CSc1nnc(C2CC2)n1-c1ccccc1)Nc1ccc(N2CCOCC2)cc1`, the “hERG current change (%, negative = inhibition) at 1uM” value stood at 11.1%.

Regarding `COc1ccc(N2CCN(c3nc4ccccn4c(=O)c3/C=C(\C#N)S(=O)(=O)c3ccccc3)CC2)cc1`, the “hERG current change (%, negative = inhibition) at 1uM” value is 7.19%.

With `Cc1occc1C(=O)N/N=C/C(Br)=C/c1ccccc1`, the “hERG current change (%, negative = inhibition) at 1uM” value amounted to 3.88%.

As for `CNC(=O)OCc1cccc(COC(=O)NC)n1.Cl`, the “hERG current change (%, negative = inhibition) at 1uM” value stood at 17.5%.

As to `S=C1NC(c2cccs2)=CC(c2ccc(Br)cc2)N1` (centres unmarked), the “hERG current change (%, negative = inhibition) at 1uM” value is on record as 7.78%.

Take `CC(NS(=O)(=O)/C=C/c1ccccc1)C(=O)NCCc1ccc(S(N)(=O)=O)cc1` (centres unmarked): the “hERG current change (%, negative = inhibition) at 1uM” value came to 11.1%.

For the molecule `Cn1c(=O)cc(-c2ccccc2)c2ccccc21`, the “hERG current change (%, negative = inhibition) at 1uM” value is given as -2.54%.

`CCOc1ccc(NC(=S)N2CCc3cc(OC)c(OC)cc3C2COc2ccc3c(C)cc(=O)oc3c2)cc1` (centres unmarked): the “hERG current change (%, negative = inhibition) at 1uM” value was determined as 2.81%.

In the case of `Cc1c(-c2cccc(Cl)c2)nc2ccccc2c1C(=O)OCC(=O)Nc1ccc2c(c1)OCO2`, the “hERG current change (%, negative = inhibition) at 1uM” value was 12.7%.

Turning to `CCNc1cc(N2CCN(C)CC2)ccc1[N+](=O)[O-]`, the “hERG current change (%, negative = inhibition) at 1uM” value is listed as -1.45%.

As for `Cc1ccc(S(=O)(=O)Cc2ccc(C(=O)N3CCN(c4cc(C)ccc4C)CC3)o2)cc1`, the “hERG current change (%, negative = inhibition) at 1uM” value worked out at 12.3%.

With `CCOc1ccc(Cc2nn[nH]n2)cc1`, the “hERG current change (%, negative = inhibition) at 1uM” value amounted to 3.24%.

Regarding `Cc1n[nH]c(C)c1CN(C)C(=O)C1CCC(=O)N(CCc2cccc(F)c2)C1` (centres unmarked), the “hERG current change (%, negative = inhibition) at 1uM” value is 10.7%.

For `COc1ccc(CNC(=O)C(OC(=O)c2ccco2)c2ccc(F)cc2)cc1` (centres unmarked), the “hERG current change (%, negative = inhibition) at 1uM” value came to 12.6%.

For `COC(=O)C1=C(C)N(C)C(C)=C(C(=O)OC)C1c1ccc(Cl)cc1`, the “hERG current change (%, negative = inhibition) at 1uM” value is on record as 17.2%.

Consider `COc1ccccc1NC(CC(=O)c1ccccc1)C(=O)OCC(=O)c1ccc(F)cc1` (centres unmarked), for which the “hERG current change (%, negative = inhibition) at 1uM” value is on record as -11.1%.

In the case of `COc1ccc(OCCOCCN2CCc3ccccc3C2)cc1`, the “hERG current change (%, negative = inhibition) at 1uM” value was -46.2%.

As for `CC(C)(C)NCc1cc(Br)ccc1OC1CCCC1.Cl`, the “hERG current change (%, negative = inhibition) at 1uM” value was -0.406%.

For the molecule `Cc1cc(-c2nnc3n2N=C(c2ccc(-c4ccccc4)cc2)CS3)n[nH]1`, the “hERG current change (%, negative = inhibition) at 1uM” value turned out to be 10.1%.

In the case of `CC(C)(C)c1nc(SCC(=O)N2CCCC2)c2ccccc2n1`, the “hERG current change (%, negative = inhibition) at 1uM” value is on record as 15.3%.

In the case of `O=C(COC(=O)c1cccc([N+](=O)[O-])c1)NC1CCCC1`, the “hERG current change (%, negative = inhibition) at 1uM” value is listed as 14%.

With `CCOC(=O)N1CCN(C(=O)c2ccc(NC(C)=O)cc2)CC1`, the “hERG current change (%, negative = inhibition) at 1uM” value is 11%.

Regarding `CCC1CCCCN1CCn1c(=S)[nH]c2cc(OC)c(OC)cc2c1=O` (centres unmarked), the “hERG current change (%, negative = inhibition) at 1uM” value is listed as -18.7%.

`Cc1ccc(NC(=O)CNc2cccc(S(=O)(=O)N3CCOCC3)c2)cc1F`: the “hERG current change (%, negative = inhibition) at 1uM” value was determined as 7.05%.

Source of the values: PMC4336329 (PLoS ONE, 2015).
